Assay results from PubChem BioAssay AID1508642 (National Center for Advancing Translational Sciences (NCATS), 2021).
The whole screen tested about 43,000 compounds, of which about 200 (0.47%) were called active. Inconclusive results (about 12%) are left out. Calls follow the shape of the dose curve; as a rule, active = well fitted cell-killing curve with a large enough effect; inconclusive = small, poorly fitted or top-dose-only effect, or effect the other way; inactive = flat fitted curve, though single readings scatter. The list shows a part of the results.

experiment: Cell viability qHTS assay in S16 Pmp22-F2sN cells; conditions: S16 Pmp22-F2sN Schwann cells viability, CellTiter-Glo, 24 h; series mostly up to 57.5 µM; activity change, negative = cytotoxicity: at the top concentration; also: nearly all actives have a fitted effect of over 65% in size
How it was run: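 S16 Pmp22-F2sN Schwann cells (500-1,000/well) in phenol-red-free DMEM with 10% FBS received 23 nL compound by pin tool for 24 h at 37 °C. Viability was then read as CellTiter-Glo luminescence after 15 min at room temperature.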
% is scaled to controls: 0 for no effect and ±100 for the full control effect.

Row | Compound | activity change, negative = cytotoxicity
1 | Cc1ccc(-c2nc(CS(=O)(=O)CC(=O)N3CCN(c4ccccc4)CC3)c(C)o2)cc1 | inactive: -1.55%
2 | Cc1cccc(NC(=O)CSc2nc3ccc(NC(=O)CCc4ccccc4)cc3s2)c1 | inactive: 5.62%
3 | COc1ccc(CNC(=O)c2cc3c(=O)n(Cc4ccc(OC)cc4)ccc3nc2C)cc1 | inactive: 16.1%
4 | COc1cc(Br)cc2cc(S(=O)(=O)c3ccccc3)c(=O)oc12 | inactive: -3.63%
5 | CCCSCCCNC(=O)c1sc2nc(C)cc(C)c2c1-n1cccc1 | inactive: -9.43%
6 | Cc1ccc(-c2noc(-c3cccnc3N(C)Cc3ccc(Cl)cc3)n2)cc1 | inactive: 1.24%
7 | COc1cccc(NCc2nnc3n2CCCCC3)c1 | inactive: -15.2%
8 | CCc1ccc(C(=O)c2cn(CC(=O)Nc3cc(OC)cc(OC)c3)c3ccc(CC)cc3c2=O)cc1 | inactive: -4.15%
9 | CCOc1ccc(CNCCSc2nnnn2C)cc1 | inactive: 10.8%
10 | COc1cccc(CNC(=O)c2ccc3nc(CCc4ccccc4)oc3c2)c1OC | inactive: 11%
11 | CCc1cccc(C)c1Nc1c(-c2ccc(N(C)C)cc2)nc2cnccn12 | inactive: -19.6%
12 | CCCOc1ccc(CN2C(=O)C(=O)c3cccc(C)c32)cc1 | inactive: -7.31%
13 | COc1ccc(-c2nc3ccccc3s2)cc1NC(=O)c1cccc(F)c1 | inactive: 5.37%
14 | Cc1ccc(-n2nc(C)c3c(C)c(CCC(=O)NCc4ccc(Cl)cc4)c(C)nc32)cc1 | inactive: 12.4%
15 | COc1ccc(CNC(=O)C(CC(C)C)NS(=O)(=O)c2ccc3c(c2)CCN3C(C)=O)cc1 (stereo not drawn) | inactive: -2.56%
16 | COc1ccc(-c2cc(C(=O)Oc3ccc(C#N)cc3)no2)cc1 | inactive: 5.64%
17 | CCCc1cc(=O)[nH]c(SCc2nc(-c3ccccc3)no2)n1 | inactive: -2.71%
18 | O=S1(=O)c2ccccc2N(Cc2ccc(F)cc2)c2ccccc21 | inactive: -17.2%
19 | COc1ccc(Nc2nnc(-n3nc(C)cc3C)c3ccccc23)cc1 | inactive: 4.98%
20 | O=C(NCCOCCn1c(=O)oc2ccccc21)Nc1ccc(F)cc1F | inactive: 18.6%
21 | CC(=O)N1CCc2cc(S(=O)(=O)NC(Cc3ccccc3)C(=O)Nc3cc(C)cc(C)c3)ccc21 (stereo not drawn) | inactive: -8.27%

Row | Compound | activity change, negative = cytotoxicity
22 | COc1ccccc1N1CCN(Cc2nc(-c3cc(OC)c(OC)c(OC)c3)no2)CC1 | inactive: -0.747%
23 | CC1CCCCN1CCCNC(=O)Cn1ncc2c3ccccc3n(Cc3ccccc3)c2c1=O (stereo not drawn) | inactive: 15.8%
24 | COc1ccccc1C1C(C(=O)Nc2ccccc2)=C(C)Nc2nc(-c3ccccc3)nn21 (stereo not drawn) | inactive: 2.33%
25 | O=C(Cn1ncc2c3ccccc3n(Cc3ccccc3)c2c1=O)NCCCN1CCCCC1 | inactive: 2.19%
26 | Cc1ccc(Cl)cc1N1CCN(C(=O)CCc2nnc3n(C)c(=O)c4ccccc4n23)CC1 | inactive: -3.67%
27 | CCN(Cc1ccccc1)C(=O)c1cn(-c2cccc(OC)c2)c(=O)c2ccccc12 | inactive: 8.68%
28 | Cc1ccc(NC(=O)CSc2nc3n[nH]c(C)c3c(=N)n2-c2ccccc2C)cc1C | inactive: -2.06%
29 | CCOc1cccc(C2c3c(oc4ccc(F)cc4c3=O)C(=O)N2c2cc(C)ccn2)c1 (stereo not drawn) | inactive: -0.316%
30 | CC1CCN(c2nc3ccccc3nc2C(F)(F)F)CC1 | inactive: 2.71%
31 | Cc1cccc(CN2C(=O)c3ccccc3Sc3ccc(C(=O)NCCCN4CCOCC4)cc32)c1 | inactive: -1.6%
32 | O=C(Nc1nc2ccccc2n1CCOc1ccccc1Cl)c1ccccc1 | inactive: 7.83%
33 | CC1CN(C(=O)N2CCC(C(=O)NCc3ccco3)CC2)c2ccccc2O1 (stereo not drawn) | inactive: 1.07%
34 | CCN(CC)S(=O)(=O)c1nnc(NC(=O)c2ccc(C)cc2)s1 | inactive: -1.95%
35 | CCCNC(=O)C1CCC(Cn2c(=O)c3sccc3n(CC(=O)N3CCCC3)c2=O)CC1 (stereo not drawn) | inactive: 1.01%
36 | CCc1cccc(C)c1NC(=O)CN1C(=O)c2ccccc2Sc2ncccc21 | inactive: 0.699%
37 | COC(=O)c1sc2cccc(F)c2c1S(=O)(=O)Nc1cc(C)c(Cl)cc1OC | inactive: -5.87%
38 | O=C(COc1ccc(Cl)cc1)Nc1ccc(-c2nc3cc(Cl)ccc3o2)c(O)c1 | inactive: 8.26%
39 | Cc1c(C(=O)Nc2cccc(C#N)c2)sc2nc3n(c(=O)c12)CCCCC3 | inactive: -5.72%
40 | CCCNC(=O)CN1C(=O)c2c(c3ccccc3n2C)C1c1ccc(OC)cc1 (stereo not drawn) | inactive: -1.91%
41 | COc1ccc(CNC(=O)c2cc3oc4ccccc4c3n2C)cc1OC | inactive: -3.77%
42 | Cn1c(=O)c2cc(C(=O)Nc3cccc(C#N)c3)sc2c2ccccc21 | inactive: 5.04%

Row | Compound | activity change, negative = cytotoxicity
43 | COc1ccc(C2=NN(CC(=O)NCCc3ccccc3)C(=O)CC2)cc1 | inactive: 3.61%
44 | CCC(=O)Nc1ccccc1-c1nc2ccccc2n(CC(=O)Nc2ccc(C)c(C)c2)c1=O | inactive: 2.38%
45 | CCc1ccc(NC(=O)C2CCN(S(=O)(=O)c3c(C)noc3C)CC2)cc1 | inactive: 3.01%
46 | COc1ccc(Cl)cc1NC(=O)c1sc2nc(-c3ccc(OC)c(OC)c3)ccc2c1N | inactive: -1.07%
47 | O=C(NCc1ccccc1)c1ccc2c(c1)N(Cc1ccc(F)cc1)CCS2 | inactive: -25.3%
48 | COc1ccc(CCNC(=O)CSCc2nc(-c3cccc(C)c3)oc2C)cc1OC | inactive: -23.9%
49 | O=C(NC1CCCC1)c1ccc(CSc2nc3cccnc3n2Cc2ccccc2)cc1 | inactive: 3.35%
50 | COC(=O)c1ccc(NC(=O)NC(C)c2c(-n3cccc3)sc(C)c2C)cc1 (stereo not drawn) | inactive: 1.92%
51 | O=C(Nc1ccc(Br)cc1F)c1cc2nc(-c3ccco3)cc(C(F)(F)Cl)n2n1 | inactive: 3.11%
52 | Cc1cc(Br)ccc1NC(=O)CCNS(=O)(=O)c1cccc2nonc12 | inactive: -2.17%
53 | COc1ccc2c(c1)CC(C(=O)Nc1ccc(OC)cc1OC)CO2 (stereo not drawn) | inactive: -2.55%
54 | CCOc1ccc(OCC)c(Nc2nc3ccc(C(=O)c4ccccc4)cc3n3cnnc23)c1 | inactive: -0.108%
55 | O=C(Cn1cc(SCc2ccccc2F)c2ccccc21)N1CCCC1 | inactive: -1.44%
56 | Cc1ccc(NC(=O)c2ccc(N(Cc3ccccc3)S(C)(=O)=O)cc2)cc1 | inactive: -24.4%
57 | O=C(Nc1nc2c(s1)CCCC2)c1ccccc1F | inactive: -15%
58 | CC(C)c1ccc(C2=NC(c3ccncc3)=Nc3ccc(F)cc3N2)cc1 | inactive: -0.23%
59 | CCOC(=O)c1ccc(N2C(=O)c3n[nH]c(-c4cccs4)c3C2c2ccc(OC)cc2OC)cc1 (stereo not drawn) | inactive: -22.3%
60 | CCC1CCc2c(sc(NC(=O)C3c4ccccc4Oc4ccccc43)c2C(=O)OC)C1 (stereo not drawn) | inactive: -21.1%
61 | Cc1ccc(C(=O)c2oc3ccccc3c2NC(=O)C(C)Oc2ccccc2Cl)cc1 (stereo not drawn) | inactive: -1.46%
62 | CCOC(=O)N1CCC(NC(=O)c2ccc3c(c2)N(Cc2ccc(Cl)cc2)C(=O)c2ccccc2S3(=O)=O)CC1 | inactive: 11.6%
63 | CCOC(=O)c1c(S(=O)(=O)N2CCN(c3cccc(C(F)(F)F)c3)CC2)c(C)n(C)c1C | inactive: -20.3%
